In PubChem BioAssay (Tox21):
Where “and” joins values, the source holds several entries; their conditions need not be identical. Identical values can stand only once. Inconclusive means that the source gave no clear call. Such entries were picked first, then a sample of the others. Where the call is inconclusive, the potency comes from a doubtful curve fit. More than one record can exist for a structure, and the calls need not agree. Calls of active or inactive are those of the source. Calls follow the shape of the dose curve; as a rule, active = well fitted activation curve with a large enough effect in the repeat runs; inconclusive = weak or mixed curves; inactive = flat fitted curve, though single readings scatter.
Potency is read from the fitted curve at half-maximal effect; tags tell the direction and shape of the fitted curve.

Experiment: A CellTox Green Cytotoxicity Assay to monitor cytotoxicity in HEK293 cells - 8 hour (AID 1224884); also: nearly all actives have a fitted effect of over 35% in size
Details: CellTox Green fluorescence; series mostly up to 76.8 µM
How it was run: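 Fluorescence intensity, read at 0, 8, 16, 24, 32 and 40 h of compound treatment, reflected dye binding to DNA of dead HEK293 cells; compounds (23 nL, DMSO) were added 5 h after plating cells with reagent.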
With `Brc1cccc(-c2ccccc2)c1` the Potency was inconclusive: 62.1 µM [activator, partial curve, poor fit]. With `Brc1ccc(Oc2ccccc2)cc1` the Potency was inconclusive: 56.3 µM [activator, single point]. In the case of `N#CCCC(Br)(C#N)CBr` (stereo unspecified), the Potency is reported as inconclusive: 54.9 µM [activator, single point]. For `CN=CNc1ccc(C)cc1C`, the Potency was inconclusive: 0.309 µM [activator, partial curve, poor fit]. In the case of `O=Cc1ccccc1`, the Potency is reported as “inactive”. For `CC1(C)[C@H](C(=O)O[C@H](C#N)c2cccc(Oc3ccccc3)c2)[C@@H]1/C=C(\Cl)C(F)(F)F`, the Potency was inconclusive: 61.6 µM [activator, partial curve, poor fit]. For `CCc1cc(OC)c(C[C@H](C)N)cc1OC`, the Potency was “inactive”. For `Brc1ccc(Oc2cc(Br)c(Br)cc2Br)c(Br)c1`, the Potency was “inactive”. For `COc1ccc(C=O)cc1O`, the Potency was inconclusive: 22 µM [activator, single point]. With `CCCN(CCC)c1c([N+](=O)[O-])cc(C(F)(F)F)cc1[N+](=O)[O-]` the Potency was active: 1.23 µM. For `CCCCOC(=O)c1ccccc1C(=O)OCc1ccccc1`, the Potency was inconclusive: 21.9 µM [activator, single point]. In the case of `CS(=O)(=O)c1ccc(C(=O)C2C(=O)CCCC2=O)c([N+](=O)[O-])c1`, the Potency is reported as active: 44.4 µM. In the case of `O=c1nc(O)n(Cl)c(=O)n1Cl`, the Potency is reported as inconclusive: 54.8 µM [activator, partial curve, poor fit]. With `O=[N+]([O-])c1c(Cl)c(Cl)c(Cl)c(Cl)c1Cl` the Potency was inconclusive: 21.8 µM [activator, single point]. In the case of `CNC(C)Cc1ccc2c(c1)OCO2` (stereo unspecified), the Potency is reported as “inactive”. In the case of `CCCCCCCCCCCCCCCl`, the Potency is reported as “inactive”. For `C[CH2][Hg][S]c1ccccc1C(=O)O`, the Potency was inconclusive: 12.3 µM [activator, single point] and active: 4.77 µM. In the case of `CCCCCCCCn1sccc1=O`, the Potency is reported as inconclusive: 55.1 µM [activator, single point]. In the case of `CCCCC(CC)COC(=O)c1ccccc1C(=O)OCC(CC)CCCC` (stereo unspecified), the Potency is reported as inconclusive: 0.977 µM [activator, single point]. In the case of `CCc1nn(C)c(C(=O)NCc2ccc(C(C)(C)C)cc2)c1Cl`, the Potency is reported as “inactive”. In the case of `C=Cc1cccc(CCl)c1`, the Potency is reported as inconclusive: 113 µM [activator, single point].
